From the supplement of paper PMC11417369
± gives the standard deviation of the averaged measurements. This is one part of the list.

Each sequence was assayed on PfAP2-EXP AP2 domain (GST-tagged) (assay: gcPBM binding intensity (ln(normalized median fluorescence intensity)); higher = stronger DNA binding).
Method in brief: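 DNA-binding domains from P. falciparum, fused to GST and produced in E. coli, were put on an Agilent 4 × 180k double-stranded probe array for 1 h in 1× PBS holding 1% milk, 0.2 mg/ml BSA, 0.5% salmon testes DNA and 0.03% Triton X-100. Probes were primer-extended, 36 bp long and drawn from intergenic genomic regions, with negative controls included. After Alexa488 anti-GST antibody detection and a 488 nm scan, binding intensity was set as the highest Masliner-normalised natural-log median intensity across replicate spots of either probe orientation.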

Sequence | gcPBM binding intensity (ln)
TTGAATGAAAAAATTTGTACTCATATAAATAATTTA [XGTACX_site4628] | 8.18 ± 0.35
CAATAATTTTTTGTGGGTACAAATAATTTTTTAAAT [XGTACX_site2407] | 8.22 ± 0.35
AGGAGAAAAGATAAAGACTTCAAGAAAAAAAAATAA [TGCATGCA_negctrl_site258] | 8.62 ± 0.32
TAACAAAACCTTATATGTACACACATATACATCACA [XGTACX_site6772] | 8.51 ± 0.25
TTATCATTTTAAATCACACACATATATATATATATA [CACACA_site2849] | 10.1 ± 0.49
TTAAAAATGAACATATGTACATATATATATATATAT [XGTACX_site7923] | 10.2 ± 0.41
ACTACAAGGCAATACAGTACATATAAATGTCATAAT [XGTACX_site8468] | 8.8 ± 0.35
AAAAAGGTTATTGGTACACACATATGTATTTATATA [CACACA_site4464] | 8.54 ± 0.4
TACCTTTTATTAATGTGTACCTAAAATATAATACTT [XGTACX_site192] | 8.46 ± 0.52
TACATATTTATATACACACACACCCTAAAAATATAT [CACACA_site6861] | 8.94 ± 0.39
AAAAGAATTACTTTCACACATATATATCTGTAAATA [CACACA_site5798] | 8.24 ± 0.47
ATAATTTTTTTTTTTTTTTTTTGAAAGTAGCATATG [CACACA_negctrl_site732] | 8.01 ± 0.48
AATAATGAAGCTTATGCACACGTTCATTATTTATAT [CACACA_site5736] | 8.73 ± 0.38
TAATATCAATATAAAGTACACACTATAGTATGTATT [CACACA_site2280] | 8.31 ± 0.29
ATATCTTTGCAAAGATGTACTTGTAAAAATATATGA [XGTACX_site768] | 8.66 ± 0.4
TATATATATATATATATACACACGTATATATATACA [CACACA_site4155] | 9.97 ± 0.63
TATAATAAAACTTTTACACACTTTAAAAAAAAAAAA [CACACA_site6392] | 8.24 ± 0.35
GACCCACTTTTCTGCACACATAAAAAATATATAAAT [CACACA_site4483] | 8.92 ± 0.21
TAAAAGTAAAGACATGCATGCATTGGTATCTTTTAC [TGCATGCA_site665] | 9.73 ± 0.085
TTTATATTTAAATATATATGAGAAAACACAAAATAT [TGCATGCA_negctrl_site211] | 8.68 ± 0.48
GCTTCATTTTAAACTTGTACTTATTTTTTGGTAAAT [XGTACX_site8879] | 9 ± 0.3
TAGTTACTTCTTATATAAAATATGTATATAAAAATA [GTGCAC_negctrl_site190] | 8.1 ± 0.35

Sequence | gcPBM binding intensity (ln)
ACATATTAATTATAAAGTACATATATATATATATAT [XGTACX_site4540] | 10.3 ± 0.18
TCTCTCATTTATTTTTGTACTTAATCCAGCACGTTT [XGTACX_site1369] | 8.96 ± 0.54
TTGTTTGTTGTAACGTGTACAGATAAAAATAAAGGG [XGTACX_site375] | 9.29 ± 0.55
TTCATATTATAGTGCACACAAAAATATATATATGGT [CACACA_site2855] | 9.22 ± 0.28
TAAATTAATACCTATGCACACATTTTTTTTTTTAAA [CACACA_site1238] | 8.38 ± 0.32
AAATTATCTTAATAGGATGTTCAAGGAGAAAGATGA [CACACA_negctrl_site1032] | 8.67 ± 0.52
TTTATTATAATATGTTGTACAAGACGTTTCAGTATA [XGTACX_site4486] | 8.77 ± 0.28
CTTAAATTTTTAAATACACACATACACCCATACACA [CACACA_site4461] | 8.93 ± 0.43
TTTTTTTTAAATATCACACACATATAATATATTCTA [CACACA_site3668] | 8.2 ± 0.45
AAACCCTATTCAATGCAATAATTTTATAATTTTTTT [TGCATGCA_negctrl_site434] | 8.28 ± 0.45
AACATGTATATATTATGTACATATGTTAAAATGATA [XGTACX_site6217] | 8.77 ± 0.41
ATAGTTTTATATAAATGTACAAATGATTTCAAATAG [XGTACX_site8236] | 8.54 ± 0.28
TAGCGGCGGTATCATGCACACGTATATATTGTAACA [CACACA_site8453] | 8.71 ± 0.52
GAGTTAATTTTTTCGTGTACTTGAAAATATTTTTTT [XGTACX_site6392] | 8.8 ± 0.25
TTTTCTTACACGAATTTTAAATTCAATATTAAACAT [CACACA_negctrl_site286] | 8.62 ± 0.33
TTACCTTTTTCTAATGGTACACATAAAATATCATTT [XGTACX_site6825] | 8.36 ± 0.28
GTGGAAATATAACACATTTTTTTTAATAATTATATT [TGCATGCA_negctrl_site522] | 8.08 ± 0.21
TTAGCAACTATTACTACACACATTTGTATATAACTT [CACACA_site6850] | 8.62 ± 0.33
CATATACTCGGACACACACACACACCGACAAAAAAA [CACACA_site4433] | 8.64 ± 0.4
TATCATAAAATATGTAGTACGTATATATATAAAAAT [XGTACX_site5455] | 8.85 ± 0.4
TTTTGTGGAGGATGGTGTACGGTATTGTATTATTAC [XGTACX_site1942] | 8.79 ± 0.49
TTTATAGTTTTTAATAGTACACATATTTTTAAGTAT [XGTACX_site5498] | 8.53 ± 0.16

Sequence | gcPBM binding intensity (ln)
AAAAAAAAAGTATATATATATTTAAGGAATTCTCTC [GTGCAC_negctrl_site454] | 8.34 ± 0.38
TAAACAGACATACATACACACATACATACAGACATA [CACACA_site6997] | 8.71 ± 0.35
ATATATATATATTGCACACATATAAATATATATATT [CACACA_site807] | 9.89 ± 0.13
CAACCTTTTTTGTTGGTGCATAATTTTTTTTTCTTT | 8.795 ± 0.078
AATATATAGCTAAAAACACACAAATATATACTCATA [CACACA_site5904] | 8.6 ± 0.4
TTTATAAAATTTATTGCACACAATTATTTTATAATT [CACACA_site2489] | 8.41 ± 0.22
ATACATTTTTTTTTCACACATATATATATATTTAAT [CACACA_site5995] | 8.92 ± 0.45
CTCACGTAGCTTGATGCATGCAAACTTGAGTAAAAG [TGCATGCA_site409] | 9.53 ± 0.31
CATTTTTAAAAAAATTGTACAAAACATATATGTGTA [XGTACX_site3396] | 8.73 ± 0.42
TATTAAAAGTAAAAAACACACATGGATATATACATA [CACACA_site3959] | 8.72 ± 0.42
TTCCTTTTGAACTCTCGTACGCGTAGGTGTTATTAT [XGTACX_site6264] | 8.96 ± 0.4
TTACTATATAATATGTGTACACAACATATAATATAT [XGTACX_site1383] | 8.56 ± 0.11
AAAAAAAAAAAAAAAAAAAAAAAAATATATATATAT [CACACA_negctrl_site436] | 10 ± 0.31
GTTGTGTAATTCGTAACACACATAAAATATAAATAA [CACACA_site7799] | 8.62 ± 0.49
TTTTTTTTTTGATGTTGTACTTATATACTATATAAT [XGTACX_site2778] | 8.63 ± 0.33
TAAATAAATAAAAAAACACACATATAAATATAAATA [CACACA_site7815] | 8.56 ± 0.4
TGTTTCCTATTTTGTATGCACTTTTTGTCATAATTA [GTGCAC_site9921] | 9.01 ± 0.042
TATACGGACTCTAAGTGTACTTAAAATAATTCAAAC [XGTACX_site3606] | 8.46 ± 0.32
TATGTGTGACAAAATTGTACGGTCTCTTTATTTTGT [XGTACX_site2679] | 8.78 ± 0.62
TATTATATAATAAAAATTATTATTATTTGTATAAAT [CACACA_negctrl_site195] | 7.89 ± 0.51
ATTTTTATACCTAAGTGTACATGATGTTTTCTTTTT [XGTACX_site973] | 8.76 ± 0.47
TATATTGCCCTTCACACACACACATATATATATATA [CACACA_site2492] | 10.2 ± 0.28

Sequence | gcPBM binding intensity (ln)
TAAAAATGTTGACACACACACATAAATATATTTTAT [CACACA_site7227] | 8.53 ± 0.37
ATATTATTTTAAAAAAGTACATTTTTAAGAATTCTT [XGTACX_site6630] | 8.51 ± 0.42
AACATATAAATAAACTGTACATATATATATATATAT [XGTACX_site1056] | 10.1 ± 0.39
AATATTACGTGTTTGGTATTTTTCGATGTTGGCAGG [XGTACX_negctrl_site59] | 8.79 ± 0.63
TATCATTATGTAGAAACACACATAAGCTTCGGTTCA [CACACA_site2766] | 8.39 ± 0.67
GGGGAAAAAAAAAAAGGAAAAAGAAAAAAAAAAAAA [GTGCAC_negctrl_site489] | 8.38 ± 0.39
ATAAAATTTATATAAGCACACAAATATATATTTATA [CACACA_site9083] | 8.43 ± 0.53
TTATGGTTATACATATGTACATATATATATATATAT [XGTACX_site1494] | 10.3 ± 0.2
AATTGCATAATATATTCACACATTTTTAAGTGATAC [CACACA_site5679] | 8.38 ± 0.35
GTAAAGGCTATATATGTGCACATTTTTTTTTTTTTT [GTGCAC_site9925] | 8.72 ± 0.4
GTATATATATATATATGTACATATATGTAGATATAT [XGTACX_site5431] | 8.62 ± 0.35
ATATGTACGCAAGGTGCACACTGGTGCATTAAAAAA [CACACA_site1801] | 9.66 ± 0.82
ATGAATATAAAATATACACACTTATATATCGAATGA [CACACA_site6240] | 8.12 ± 0.5
TACATATGGCACATATGTACACACGTATAGATAATA [XGTACX_site4123] | 8.79 ± 0.39
TTTTATTTTTTCTCACGTACAAATATATAATTTTTT [XGTACX_site6952] | 8.64 ± 0.29
AATATATCCTATTCGAACAAAAATACATGCACATAT [CACACA_negctrl_site1058] | 8.93 ± 0.14
TAAATATATGCATATACACACAACAAAAAAATATAT [CACACA_site2341] | 8.94 ± 0.42
TCTCAGTAAATTAAATGTACATAAGGGAGGAACTAT [XGTACX_site8045] | 8.78 ± 0.36
TTGTGGATTTTGTGCGCACACACATGCAAAAAGAAA [CACACA_site1147] | 9.29 ± 0.28
CACAGACATATATATACACACTTTTATTTAAATAAC [CACACA_site4962] | 8.72 ± 0.46
TTTTTGTATCCTTCTTCTTTTTCCAGACTACATTAT [XGTACX_negctrl_site216] | 9.11 ± 0.52
AAAAAAAAAATGTGCACACGCGTACACCCAAAAAAA [CACACA_site5149] | 8.72 ± 0.28
